Experimental findings from publication PMC4336329 (PLoS ONE, 2015) are described below.

Out of some 310,000 compounds screened, about 2,200 (0.71%) showed an effect of 50% or more. The effect is printed as a negative number. Some of the results follow.

Chain of human ether-à-go-go-related gene (hERG) potassium channel (Q12809 whole entry, looked up): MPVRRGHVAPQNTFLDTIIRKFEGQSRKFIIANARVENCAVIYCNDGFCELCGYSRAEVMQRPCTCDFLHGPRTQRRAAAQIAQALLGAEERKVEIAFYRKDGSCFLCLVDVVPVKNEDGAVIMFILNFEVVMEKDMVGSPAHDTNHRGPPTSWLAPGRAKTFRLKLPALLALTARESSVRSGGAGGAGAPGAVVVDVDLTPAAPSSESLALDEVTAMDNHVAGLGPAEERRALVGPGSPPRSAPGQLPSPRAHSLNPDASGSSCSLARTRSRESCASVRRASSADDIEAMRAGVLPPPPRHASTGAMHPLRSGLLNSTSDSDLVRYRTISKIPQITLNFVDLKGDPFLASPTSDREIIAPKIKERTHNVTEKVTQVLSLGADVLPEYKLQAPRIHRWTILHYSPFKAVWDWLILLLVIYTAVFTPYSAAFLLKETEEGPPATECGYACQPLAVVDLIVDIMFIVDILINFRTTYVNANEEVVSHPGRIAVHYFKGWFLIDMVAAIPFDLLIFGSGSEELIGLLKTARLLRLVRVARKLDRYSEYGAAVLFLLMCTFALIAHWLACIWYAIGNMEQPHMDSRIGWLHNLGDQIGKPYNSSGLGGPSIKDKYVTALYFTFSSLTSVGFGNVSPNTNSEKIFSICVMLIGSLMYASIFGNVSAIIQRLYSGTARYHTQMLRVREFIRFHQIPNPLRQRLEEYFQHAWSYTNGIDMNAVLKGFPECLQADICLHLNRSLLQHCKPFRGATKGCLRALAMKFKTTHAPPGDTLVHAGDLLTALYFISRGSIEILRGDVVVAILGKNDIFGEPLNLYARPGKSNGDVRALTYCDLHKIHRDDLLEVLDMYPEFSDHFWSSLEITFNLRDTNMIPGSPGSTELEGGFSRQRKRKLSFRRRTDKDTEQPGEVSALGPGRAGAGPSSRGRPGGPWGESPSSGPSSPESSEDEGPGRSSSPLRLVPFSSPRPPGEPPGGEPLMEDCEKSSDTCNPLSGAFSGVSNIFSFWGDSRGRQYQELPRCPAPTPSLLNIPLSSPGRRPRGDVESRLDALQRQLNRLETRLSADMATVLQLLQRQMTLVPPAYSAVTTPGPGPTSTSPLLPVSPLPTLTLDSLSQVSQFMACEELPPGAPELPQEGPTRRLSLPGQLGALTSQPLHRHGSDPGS

The assay concerns the target human ether-à-go-go-related gene (hERG) potassium channel (human, UniProt Q12809). Put plainly: primary screen, population patch clamp on CHO cells stably expressing hERG.
As to `Cc1nc2ccccc2c(=O)n1-c1ccc(Br)cn1`, the “hERG current change (%, negative = inhibition) at 1uM” value worked out at 3.3%. For `O=C(CSc1ccc(Cl)cc1)N1CCN(c2c(Cl)cccc2[N+](=O)[O-])CC1`, the “hERG current change (%, negative = inhibition) at 1uM” value is listed as 0.29%.

On to `C/C(CC(=O)Nc1cccc(Br)c1)=N\NC(=O)c1ccc(O)cc1O`, for which the “hERG current change (%, negative = inhibition) at 1uM” value is reported as 12.1%. As to `Clc1ccc(CSc2nnc(-c3ccncc3)o2)cc1`, the “hERG current change (%, negative = inhibition) at 1uM” value is on record as 4.32%. Regarding `COc1ccc(OC)c(S(=O)(=O)Nc2cc(C(=O)O)ccc2N2CC3CC(C2)c2cccc(=O)n2C3)c1` (stereo not shown), the “hERG current change (%, negative = inhibition) at 1uM” value was determined as 10.1%.

On to `Cc1nnc(SCC(=O)O)o1`, for which the “hERG current change (%, negative = inhibition) at 1uM” value was determined as 13.8%.

Regarding `COC(=O)c1ccc(NC(=O)CSc2nnc(-c3ccccc3Br)n2-c2ccccc2)cc1`, the “hERG current change (%, negative = inhibition) at 1uM” value is on record as 6.23%.

Consider `Clc1cccc(-c2sc(Nc3ccccc3)n[n+]2-c2ccccc2)c1Cl.[Cl-]`, for which the “hERG current change (%, negative = inhibition) at 1uM” value turned out to be 17.6%. As for `O=[N+]([O-])c1ccccc1S(=O)(=O)NCc1ccco1`, the “hERG current change (%, negative = inhibition) at 1uM” value is 7.99%. As for `CC1=CC(=C2C(=O)NC(=S)NC2=O)C=C(C(F)(F)F)N1C`, the “hERG current change (%, negative = inhibition) at 1uM” value was determined as 12.6%. Under `COc1cc(CC(=O)N(c2ccccc2)c2nc(C)cs2)cc(OC)c1OC` stands -2.86%. For the molecule `O=C(Nc1ccccc1C(=O)NCCN1CCOCC1)c1ccc(Cl)cc1Cl`, the “hERG current change (%, negative = inhibition) at 1uM” value turned out to be 8.86%. Regarding `C/C(=N\N1CCCCCC1)c1c(O)n(-c2ccc(Cl)cc2)c(=O)[nH]c1=O`, the “hERG current change (%, negative = inhibition) at 1uM” value is recorded as 11%. Under `O=C(NCc1csc(-c2cccs2)n1)Nc1ccc(F)cc1F` stands 12.4%.

`CN(CC(=O)N1CCCCCC1)S(=O)(=O)c1ccc(Br)cc1`: the “hERG current change (%, negative = inhibition) at 1uM” value came out at 0.738%. The value for `CC(C)(C)OC(=O)N[C@@H](C(=O)OC(C)(C)C)c1ccccc1` was 9.82%; that for `CCC1Oc2ccccc2N(CC(=O)NCCCN2CCN(Cc3ccccc3)CC2)C1=O` (stereo not shown) was -21.6%. Consider `NC(=O)c1ccc(NC(=O)COC(=O)c2cc(S(=O)(=O)N3CCOCC3)ccc2N2CCCCC2)cc1`, for which the “hERG current change (%, negative = inhibition) at 1uM” value was 10.7%. `CCN(CC)CCn1c2ccccc2c2nc3ccccc3nc21`: the “hERG current change (%, negative = inhibition) at 1uM” value came out at 12.8%. Under `CC1=CN2C(=N)/C(=C/c3ccc(C)o3)C(=O)N=C2S1` stands 7.53%. As for `CCOC(=O)c1c(NC(=O)C(F)(OC)C(F)(F)F)sc2c1CCN(C)C2` (stereo not shown), the “hERG current change (%, negative = inhibition) at 1uM” value is on record as 6.95%. The value for `O=C(CCc1ccccc1)NC(=S)Nc1ccc(S(=O)(=O)N2CCOCC2)cc1` was 12%; that for `O=C(CCC(=O)N1CCN(c2ccc(F)cc2)CC1)c1ccccc1` was 15.4%.

`CN1CCN(c2ccc(N)c(N3CCN(C)CC3)c2)CC1`: the “hERG current change (%, negative = inhibition) at 1uM” value is on record as 16.1%. On to `COC(=O)C(C(=O)OC)c1ccc(-n2cccc2)cc1`, for which the “hERG current change (%, negative = inhibition) at 1uM” value was found to be 14.9%. Regarding `COc1ccc(C2=NS(=O)(=O)N(C)C(C(=O)NC3CCCC3)=C2)cc1`, the “hERG current change (%, negative = inhibition) at 1uM” value amounted to 9.89%.

Consider `CC(C)c1nc2ccc(NC(=O)C34CC5CC(CC(C5)C3)C4)cc2[nH]1`, for which the “hERG current change (%, negative = inhibition) at 1uM” value worked out at 11.3%.

As for `COc1ccc(CNC(C)Cc2cccs2)cc1` (stereo not shown), the “hERG current change (%, negative = inhibition) at 1uM” value is -0.498%.

As to `O=C(Nc1ccccc1)c1cccnc1NCCc1ccccc1`, the “hERG current change (%, negative = inhibition) at 1uM” value was -1.34%.

With `CNc1nc(C)c([N+](=O)[O-])c(Nc2ccc(OC)cc2)n1`, the “hERG current change (%, negative = inhibition) at 1uM” value worked out at 13.3%.

With `O=C(NCc1ccc(N2CCCC2=O)cc1)c1cn(Cc2ccccc2)nn1`, the “hERG current change (%, negative = inhibition) at 1uM” value is given as 7.7%. Under `COc1ccc(-c2ncccc2OC(=O)C23CC4CC(CC(C4)C2)C3)cc1.Cl.O` stands 8.65%. Regarding `Cc1cc(C)n(-c2ccc(C(=O)Nc3cccc([N+](=O)[O-])c3)cc2)n1`, the “hERG current change (%, negative = inhibition) at 1uM” value was 29%. With `CS(=O)(=O)Nc1ccc(C(=O)N2CC(=O)Nc3ccccc32)cc1`, the “hERG current change (%, negative = inhibition) at 1uM” value came to 12%. As to `CC(NS(=O)(=O)c1ccc(Br)cc1)C(c1cccs1)N1CCN(C)CC1` (stereo not shown), the “hERG current change (%, negative = inhibition) at 1uM” value is given as -23.9%.

Consider `N/C(=N\OC(=O)CCc1ccccc1)c1ccc(Cl)cc1`, for which the “hERG current change (%, negative = inhibition) at 1uM” value is on record as 12.3%.

As for `Cc1ccc(NCc2nc3ccccc3n2CCOc2ccccc2)cc1`, the “hERG current change (%, negative = inhibition) at 1uM” value is given as 11.2%. In the case of `CC(=O)Nc1ccc(S(=O)(=O)NC2(C(F)(F)F)NC(=O)N(C3CCCC3)C2=O)cc1` (stereo not shown), the “hERG current change (%, negative = inhibition) at 1uM” value stood at 14.2%.

Regarding `C[n+]1ccc(C(=O)N/N=C/c2ccco2)cc1.[I-]`, the “hERG current change (%, negative = inhibition) at 1uM” value is listed as 19.8%.

Regarding `NC(=O)c1sc2nc(N3CCOCC3)c3c(c2c1N)CCCC3`, the “hERG current change (%, negative = inhibition) at 1uM” value was 9.39%. For the molecule `O=C(NCc1ccco1)C1CCN(S(=O)(=O)c2cccc([N+](=O)[O-])c2)CC1`, the “hERG current change (%, negative = inhibition) at 1uM” value is on record as 9.71%.

Regarding `c1ccc2cc(Cn3ccnc3)ccc2c1`, the “hERG current change (%, negative = inhibition) at 1uM” value worked out at 9.53%.

As for `Cc1ccc(NC(=O)CS(=O)CC(=O)Nc2cnc3ccccc3c2)cc1Cl` (stereo not shown), the “hERG current change (%, negative = inhibition) at 1uM” value came out at 15.9%. In the case of `CN(C)S(=O)(=O)c1ccc2nc(NC(=O)c3cccnc3)sc2c1`, the “hERG current change (%, negative = inhibition) at 1uM” value came out at 6.65%. Turning to `Cc1cccc(OCCn2c(CCCO)nc3ccccc32)c1`, the “hERG current change (%, negative = inhibition) at 1uM” value is 10.2%. For the molecule `COCCNC(=O)CSc1ncnc2sc(-c3ccccc3)cc12`, the “hERG current change (%, negative = inhibition) at 1uM” value turned out to be 12.9%. For `CC(C)c1ccc(OCCCCCN2CCOCC2)cc1.O=C(O)C(=O)O`, the “hERG current change (%, negative = inhibition) at 1uM” value amounted to 10.2%.

Consider `O=C1CCNc2cc3ccccc3cc21`, for which the “hERG current change (%, negative = inhibition) at 1uM” value is 1.01%. The value for `O=C(CCCN1C(=O)/C(=C/c2ccco2)SC1=S)Nc1ccccc1` was 7.34%; that for `CC(C)(C)S(=O)(=O)c1ccccc1C(=O)O` was 2.85%. On to `Cc1cccc(-n2ncc3c2CCCC3NC(=O)Cc2c(C)noc2C)c1C` (stereo not shown), for which the “hERG current change (%, negative = inhibition) at 1uM” value worked out at 20.1%. `Cc1[nH]n(-c2ccccc2)c(=O)c1C1(C(F)(F)F)C(=O)N(c2ccccc2)C2=C1C(=O)CC(C)(C)C2` (stereo not shown): the “hERG current change (%, negative = inhibition) at 1uM” value worked out at 17.2%.

As to `Cc1c(-c2csc(N)n2)c2ccccc2n1C`, the “hERG current change (%, negative = inhibition) at 1uM” value is 12%.

Regarding `O=C1OC(/C=C/c2ccccc2)=NC/1=C/c1ccco1`, the “hERG current change (%, negative = inhibition) at 1uM” value was -5.83%. In the case of `C=CCSc1nc(C)c2cc(C)cc(C)c2n1`, the “hERG current change (%, negative = inhibition) at 1uM” value amounted to 13.2%. On to `CC(C)CNC(=O)COC(=O)CCC(=O)c1ccc(Cl)cc1`, for which the “hERG current change (%, negative = inhibition) at 1uM” value is reported as -10.5%. `O=C1Nc2ccccc2/C1=C\C(=O)c1ccccc1`: the “hERG current change (%, negative = inhibition) at 1uM” value was 13.7%. On to `Cc1cnc(CNC(=O)c2ccc(OC3CCN(C(=O)C4CC4)CC3)cc2)cn1`, for which the “hERG current change (%, negative = inhibition) at 1uM” value came to 19.4%.
